According to the supplement of paper PMC4967469:

Columns and labels:
Assay in all cases: Viability of human cancer cell lines after 72 h of drug (GDSC screen)
Tamoxifen = compound: CC/C(=C(\c1ccccc1)c1ccc(OCCN(C)C)cc1)c1ccccc1 [Tamoxifen]; conditions: top dose 5 µM
Procedure: (§1)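 Human cancer cell lines in 384-well plates, medium with 10% serum, drug for 72 h over a 256-fold dose range (nine 2-fold or five 4-fold steps up to the top dose). Adherent lines were fixed and stained with the nucleic acid dye Syto60, suspension lines read with resazurin; signal relative to control wells, capped at 0 and 100%. One two-parameter sigmoid per drug and line, fitted in a mixed model over all curves with the slope shared within a line.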

VNLG/124 = compound: CCCC(=O)OCc1ccc(OC(=O)/C=C(C)/C=C/C=C(C)/C=C/C2=C(C)CCCC2(C)C)cc1 [VNLG/124]; conditions: top dose 5.12 µM; top dose inferred
Procedure: as §1

Elesclomol = compound: CN(NC(=O)CC(=O)NN(C)C(=S)c1ccccc1)C(=S)c1ccccc1 [Elesclomol]; conditions: top dose 0.2 µM; top dose inferred
Procedure: as §1

HG-5-88-01 = compound: COc1cc(N2CCC(C(N)=O)CC2)ccc1Nc1nc(N)c(Cl)c(Nc2ccccc2S(=O)(=O)C(C)C)n1 [HG-5-88-01]; conditions: top dose 10 µM; top dose inferred
Procedure: as §1

Bleomycin = compound: Cc1c(N)nc([C@H](CC(N)=O)NC[C@H](N)C(N)=O)nc1C(=O)N[C@H](C(=O)N[C@H](C)[C@@H](O)[C@H](C)C(=O)N[C@H](C(=O)NCCc1nc(-c2nc(C(=O)NCCC[S+](C)C)cs2)cs1)[C@@H](C)O)[C@@H](OC1OC(CO)C(O)C(O)C1OC1OC(CO)C(O)C(OC(N)=O)C1O)c1cnc[nH]1 [Bleomycin]
Procedure: as §1

Masitinib = compound: Cc1ccc(NC(=O)c2ccc(CN3CCN(C)CC3)cc2)cc1Nc1nc(-c2cccnc2)cs1 [Masitinib]; conditions: top dose 20 µM
Procedure: as §1

LAQ824 = compound: O=C(/C=C/c1ccc(CN(CCO)CCc2c[nH]c3ccccc23)cc1)NO [LAQ824]; conditions: top dose 1.024 µM; top dose inferred
Procedure: as §1

OSI-930 = compound: O=C(Nc1ccc(OC(F)(F)F)cc1)c1sccc1NCc1ccnc2ccccc12 [OSI-930]; conditions: top dose 10.24 µM
Procedure: as §1

BX-912 = compound: O=C(Nc1cccc(Nc2ncc(Br)c(NCCc3cnc[nH]3)n2)c1)N1CCCC1 [BX-912]; conditions: top dose 10.24 µM; top dose inferred
Procedure: as §1

NSC-87877 = compound: O=S(=O)(O)c1ccc2cc(N=Nc3cc(S(=O)(=O)O)c4cccnc4c3O)ccc2c1 [NSC-87877]; conditions: top dose 16 µM; top dose inferred
Procedure: as §1

[1] = top dose 50 µM, screen: GDSC drug entry 1378, top dose inferred
[2] = top dose 64 µM, screen: GDSC drug entry 190

Cell Line	AUC (Tamoxifen)	IC50 (Tamoxifen) [µM]	AUC (VNLG/124)	IC50 (VNLG/124) [µM]	AUC (Elesclomol)	IC50 (Elesclomol) [µM]	AUC (HG-5-88-01)	IC50 (HG-5-88-01) [µM]	AUC (Bleomycin; [1])	IC50 (Bleomycin; [1]) [µM]	AUC (Bleomycin; [2])	IC50 (Bleomycin; [2]) [µM]	AUC (Masitinib)	IC50 (Masitinib) [µM]	AUC (LAQ824)	IC50 (LAQ824) [µM]	AUC (OSI-930)	IC50 (OSI-930) [µM]	AUC (BX-912)	IC50 (BX-912) [µM]	AUC (NSC-87877)	IC50 (NSC-87877) [µM]
HT55 (large intestine, adherent)	0.99	> 5	0.985	> 5.12	0.939	> 0.2	0.844	7.11	0.963	> 50	0.943	> 64	0.99	> 20	0.618	0.135	0.952	> 10.2	0.99	> 10.2	0.939	> 16
HT-115 (large intestine, adherent)	0.964	> 5	0.986	> 5.12	0.872	0.162	0.951	> 10	0.854	34.2	0.938	> 64	0.892	19.9	0.717	0.247	0.99	> 10.2	0.991	> 10.2	0.991	> 16
HUTU-80 (digestive system, adherent)	0.991	> 5	0.99	> 5.12	0.02	< 0.000781	0.985	> 10	0.125	0.278	0.022	< 0.25	0.885	15.3	0.335	0.0244	0.925	> 10.2	0.344	0.257	0.991	> 16
Hs683 (glioma, adherent)	0.987	> 5	0.974	> 5.12	0.709	0.0489	0.987	> 10	0.339	1.11	0.464	3.18	0.914	> 20	0.571	0.1	0.976	> 10.2	0.9	> 10.2	0.986	> 16
Hs766T (pancreas, adherent)	0.981	> 5	0.982	> 5.12	0.66	0.0405	0.961	> 10	0.84	> 50	0.833	61.4	0.981	> 20	0.623	0.156	0.969	> 10.2	0.984	> 10.2	0.984	> 16
Hs939-T (melanoma, adherent)	0.98	> 5	0.977	> 5.12	0.471	0.0104	0.879	> 10	0.724	14.5	0.847	53.8	0.983	> 20	0.527	0.0765	0.978	> 10.2	0.986	> 10.2	0.969	> 16
HuO9 (osteosarcoma, adherent)	0.972	> 5	0.984	> 5.12	0.587	0.0223	0.847	8.61	0.78	23.1	0.912	> 64	0.877	> 20	0.906	> 1.02	0.942	> 10.2	0.732	3.2	0.984	> 16
HuP-T3 (pancreas, adherent)	0.977	> 5	0.98	> 5.12	0.556	0.0184	0.815	7.1	0.706	13.7	0.516	4.47	0.916	> 20	0.545	0.087	0.964	> 10.2	0.937	> 10.2	0.974	> 16
HuP-T4 (pancreas, adherent)	0.967	> 5	0.984	> 5.12	0.633	0.0299	0.712	2.59	0.444	2.17	0.281	0.915	0.87	> 20	0.499	0.0637	0.894	> 10.2	0.758	3.74	0.984	> 16
IA-LM (large cell lung carcinoma, adherent)	0.969	> 5	0.98	> 5.12	0.715	0.0551	0.927	> 10	0.88	> 50	0.462	3.11	0.867	> 20	0.483	0.0573	0.948	> 10.2	0.975	> 10.2	0.984	> 16
IGR-1 (melanoma, adherent)	0.99	> 5	0.988	> 5.12	0.917	> 0.2	0.954	> 10	0.8	20.8	0.404	2.25	0.884	17	0.355	0.0268	0.982	> 10.2	0.658	1.65	0.972	> 16

IC50 is the fitted dose that halves viability relative to control wells, and lower means more sensitive; a limit (>, <) means that the fit lies beyond the doses tested. The AUC spans the tested range (256-fold, ending at the top dose) of the same fit: 1 means no effect, lower means more sensitive. For some assays here: Any top dose called inferred was derived from the fitted curves, not read from the paper. For some assays here: An entry number marks a drug with two screens in the source, which often give different values.
